{"source": "PubChem BioAssay AID900", "about": "(National Center for Advancing Translational Sciences (NCATS), 2007)", "note": "Several values for one entry are separate records, joined by “and”; a condition that tells them apart may be missing. Equal values may be shown once. In all, about 75,000 compounds went through this assay and about 20 (0.03%) were called active. The inconclusive results got no clear call from the source; some entries with a clear call stand among them for comparison. Calls follow the shape of the dose curve; as a rule, active = well fitted inhibition curve with a large enough effect; inconclusive = small, poorly fitted or top-dose-only effect; inactive = flat fitted curve, though single readings scatter. Potencies beside an inconclusive call are fits to weak or partial responses and may not hold up. Potency is read from the fitted curve at half-maximal effect; tags tell the direction and shape of the fitted curve or compound fluorescence and quenching.", "data": [{"target": "Caspase-1 (Homo sapiens) (UniProt P29466)", "assay": "qHTS Assay for Allosteric/Competitive Inhibitors of Caspase-1;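 as to activity change, negative = inhibition: plate controls were vehicle for no effect and no substrate for full effect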", "conditions": "Caspase-1 enzyme, Ac-WEHD-AFC fluorogenic rate; activity change, negative = inhibition: at 57.5 µM (top of the series) unless noted", "values": [{"smiles": "COc1ccc2cc3cc(C(=O)NCC4COc5ccccc5O4)oc3nc2c1", "note": "(centres undefined)", "Potency": "inconclusive: 39.8 µM [inhibitor, single point]"}, {"smiles": "CCOC(=O)c1c(NC(=O)Cc2cccs2)sc(C)c1C", "activity change, negative = inhibition": "inactive: -3.62%"}, {"smiles": "O=C1[C@H]2[C@H]3[C@H](O)[C@H](O)C/C(=N/OC[C@@H](O)COCc4ccco4)[C@@H]3CC[C@@H]2C(=O)N1c1cccc(Oc2ccccc2)c1", "activity change, negative = inhibition": "inactive: -0.42% [at 11.5 µM]"}, {"smiles": "CCOC(=O)N1CCN(C(=O)c2ccc3nc4cc(Cl)ccc4c(=O)n3c2)CC1", "Potency": "inconclusive: 2 µM [inhibitor, partial curve]"}, {"smiles": "c1ccc(-c2cc(-c3nn4c(-c5ccco5)nnc4s3)c3ccccc3n2)cc1", "activity change, negative = inhibition": "inactive: -9.69%"}, {"smiles": "CCNC(=O)c1nc[nH]c1C(=O)NCC", "activity change, negative = inhibition": "inactive: 3.21%"}, {"smiles": "CCn1c(SCCOc2ccc(Cl)cc2)nnc1-c1cccs1", "activity change, negative = inhibition": "inactive: -3.08%"}, {"smiles": "CCOC(=O)c1c(C)c(C(=O)Nc2ccc3c(c2)OCCO3)c(C)n1C", "activity change, negative = inhibition": "inactive: -0.618%"}, {"smiles": "O=c1c(-c2cc(F)cc(F)c2)nc2cnc(N3CCOCC3)nc2n1Cc1ccc(F)cc1", "Potency": "inconclusive: 3.16 µM [fluorescent, full curve]"}, {"smiles": "Cn1cccc1Cc1nnc(SCC(=O)Nc2nc3ccccc3s2)n1CCc1ccccc1", "activity change, negative = inhibition": "inactive: -6.71%"}, {"smiles": "CN(CCc1ccccn1)S(=O)(=O)c1ccc2c3c(cccc13)C(=O)N2", "Potency": "inconclusive: 25.1 µM [fluorescent]"}, {"smiles": "COc1ccc(-n2c(=O)c(-c3cn(C)c4ccccc34)nc3cnc(N4CCNCC4)nc32)cc1", "Potency": "inconclusive: 12.6 µM [inhibitor, partial curve]"}, {"smiles": "CCC(C)(C)NC(=O)C(c1ccccc1F)N(Cc1ccco1)C(=O)c1csnn1", "note": "(centres undefined)", "activity change, negative = inhibition": "inactive: 0.0527%"}, {"smiles": "Cc1cc(NC(=O)c2cccc(C(=O)Nc3cc(C)on3)n2)no1", "activity change, negative = inhibition": "inactive: 0.354%"}, {"smiles": "CC(=O)Nc1cc(-c2ccccc2)ccc1O", "activity change, negative = inhibition": "inactive: 1.62%"}, {"smiles": "CCC(c1nnnn1C(C)(C)CC)N(CCCO)Cc1cc2cc(C)cc(C)c2[nH]c1=O", "note": "(centres undefined)", "Potency": "inconclusive: 25.1 µM [inhibitor, partial curve]"}, {"smiles": "N#C[C@@H]1[C@@H]2C(=O)N(c3ccc4c(c3)OCCO4)C(=O)[C@@H]2C2c3ccccc3C=CN21", "note": "(some centres undefined)", "Potency": "active: 31.6 µM"}, {"smiles": "CC(C)C(c1nnnn1C1CCCC1)N(C)C1CCCCC1", "note": "(centres undefined)", "activity change, negative = inhibition": "inactive: 0.0616%"}, {"smiles": "COc1ccc(-c2cc3ccccc3oc2=O)cc1NC(=O)c1ccc(Br)o1", "Potency": "inconclusive: 3.16 µM [inhibitor, partial curve]"}, {"smiles": "CCN1CCN(c2nc3ccccc3nc2C(C#N)C(=O)OC2CCCCC2)CC1", "note": "(centres undefined)", "activity change, negative = inhibition": "inactive: -7.18%"}, {"smiles": "CCCCn1c(CCC(=O)O)ccc1-c1cccs1", "Potency": "inconclusive: 31.6 µM [inhibitor, partial curve]"}, {"smiles": "CC(=O)N1CCC2(CC1)CC(=O)c1cc(OCC(=O)NCc3ccc(C)cc3)ccc1O2", "Potency": "inconclusive: 25.1 µM [inhibitor, partial curve]"}, {"smiles": "O=C(Nc1ccc2c(c1)OCCO2)c1ccc(Br)c(S(=O)(=O)N2CCOCC2)c1", "activity change, negative = inhibition": "inactive: -4.06%"}, {"smiles": "COc1ccc2occ(C(=O)c3coc4ccc(O)c(CN(C)C)c34)c2c1", "Potency": "inconclusive: 31.6 µM [inhibitor, partial curve]"}, {"smiles": "Cc1cc(C)c2c(n1)nn1c(-n3ccnc3)cc(C)nc21", "Potency": "inconclusive: 15.8 µM [inhibitor, partial curve]"}, {"smiles": "O=C1C[C@@H](O)[C@@H](O)[C@H]2[C@@H]3C(=O)N(C[C@@H]4CCCO4)C(=O)[C@@H]3CC[C@H]12", "activity change, negative = inhibition": "inactive: -1.75% [at 11.5 µM] and inactive: -3.66% [at 11.5 µM]"}, {"smiles": "Cc1nc2ccccc2c(=O)n1/N=C/c1ccncc1", "activity change, negative = inhibition": "inactive: -0.295%"}, {"smiles": "CCCC(c1nnnn1Cc1ccccc1)N1CCN(c2ccccc2OC)CC1", "note": "(centres undefined)", "activity change, negative = inhibition": "inactive: -4.38%"}, {"smiles": "COc1ccc(OC)c(N=c2oc3c(OC)cccc3cc2C(=O)NCc2ccco2)c1", "activity change, negative = inhibition": "inactive: -0.322%"}, {"smiles": "O=c1c(-c2ccccc2)nc2cnc(Oc3ccccc3)nc2n1Cc1cccs1", "Potency": "inconclusive: 31.6 µM [inhibitor, partial curve]"}, {"smiles": "O=C(Nc1nc2cc3c(cc2s1)OCCO3)c1cccc(S(=O)(=O)N2CCOCC2)c1", "Potency": "inconclusive: 39.8 µM [inhibitor, single point]"}, {"smiles": "C[N+]1(C)CCc2cc3c(cc2[C@@H]1[C@@H]1C(=O)Oc2c1ccc1c2OCO1)OCO3", "Potency": "inconclusive: 31.6 µM [inhibitor, partial curve] and inconclusive: 39.8 µM [inhibitor, partial curve]"}, {"smiles": "Cc1cccc2cc(C#N)c(SCC(=O)N3CC(=O)Nc4ccccc43)nc12", "Potency": "inconclusive: 15.8 µM [inhibitor, partial curve]"}, {"smiles": "COCCn1c(C)cc2c(c1=O)C(c1ccccc1F)C(C#N)=C(N)O2", "note": "(centres undefined)", "activity change, negative = inhibition": "inconclusive: -15.9% [inhibitor]"}, {"smiles": "Nc1ccc(-c2nc3ccc(-c4nc5ccccc5o4)cc3[nH]2)cc1", "Potency": "inconclusive: 31.6 µM [inhibitor, partial curve]"}, {"smiles": "CCOC(=O)C1=C(C)NC2=C(C(=O)CC(C)(C)C2)C1c1ccc(N(C)C)cc1", "note": "(centres undefined)", "Potency": "inconclusive: 25.1 µM [inhibitor, partial curve]"}, {"smiles": "COC(=O)c1cc(=O)nc2sc3ccccc3n12", "activity change, negative = inhibition": "inactive: 0.442%"}, {"smiles": "O=C(Nc1ccc2oc(-c3ccncc3)nc2c1)c1cccs1", "activity change, negative = inhibition": "inconclusive: -17.7% [inhibitor]"}, {"smiles": "c1ccc(SCCOCCn2cncn2)cc1", "activity change, negative = inhibition": "inactive: -1.47%"}, {"smiles": "N#CC1=C2C=Cc3ccccc3N2CCCC1=O", "activity change, negative = inhibition": "inconclusive: -15.1% [inhibitor]"}, {"smiles": "COc1cc2c(cc1OC)-c1c(OC)c(OC)cc3ccnc(c13)C2=O", "Potency": "inconclusive: 39.8 µM [inhibitor, partial curve]"}, {"smiles": "COC(=O)[C@@H]1C[C@@]1(C)[C@@H](NC(=O)OCc1ccccc1)c1ccccc1", "Potency": "inconclusive: 39.8 µM [inhibitor, single point]"}, {"smiles": "CCn1c(SCC(=O)Nc2cccc(C)n2)nnc1-c1ccco1", "activity change, negative = inhibition": "inactive: -2.78%"}, {"smiles": "CCOC(=O)COn1c(=O)c(-c2cccs2)[n+]([O-])c2ccccc21", "Potency": "inconclusive: 31.6 µM [inhibitor, partial curve]"}, {"smiles": "CC(C)c1ccc(CNc2ccc(N3CCOCC3)cc2)cc1", "activity change, negative = inhibition": "inactive: -2.87%"}, {"smiles": "Cc1ccc2cc(C#N)c(NCc3ccco3)nc2c1", "Potency": "inconclusive: 31.6 µM [inhibitor, single point]"}, {"smiles": "O=C(NC1=NCCS1)Nc1ccccc1", "activity change, negative = inhibition": "inactive: 0.112%"}, {"smiles": "O=C(O)c1ccccc1NS(=O)(=O)c1ccc(Cl)c(Cl)c1", "activity change, negative = inhibition": "inactive: -4.76%"}, {"smiles": "C=CC1=C(C)C2=NC1=CC1=NC(=CC3=NC(=CC4=NC(=C2)C(C)=C4CCC(=O)O)C(CCC(=O)O)=C3C)C(C=C)=C1C.[Zn]", "activity change, negative = inhibition": "inactive: -11%"}, {"smiles": "COCCn1c(=O)c(CCc2ccccc2)nc2cnc(N3CCN(C)CC3)nc21", "Potency": "inconclusive: 31.6 µM [inhibitor, single point]"}, {"smiles": "COc1cc(/C=C/C(=O)CC(=O)/C=C/c2ccc(O)c(OC)c2)ccc1O", "Potency": "inconclusive: 31.6 µM [inhibitor, partial curve] and inconclusive: 15.8 µM [inhibitor, full curve]"}, {"smiles": "Cc1csc(SCC(=O)Nc2cccc3nsnc23)n1", "activity change, negative = inhibition": "inactive: -14%"}, {"smiles": "COCC#Cc1ccc(C2C(C)CCC3C(=O)N4C(CCC(C)C4c4ccc(C#CCOC)cc4)C(=O)N32)cc1", "note": "(centres undefined)", "activity change, negative = inhibition": "inactive: -0.659% [at 11.5 µM]"}, {"smiles": "N#Cc1nc(COc2ccccc2)oc1N1CCN(Cc2ccccc2)CC1", "activity change, negative = inhibition": "inactive: -0.635%"}, {"smiles": "COc1ccc(Oc2ncc3nc(-c4ccc(F)cc4)c(=O)n(Cc4cccs4)c3n2)cc1", "Potency": "inconclusive: 20 µM [inhibitor, partial curve]"}, {"smiles": "N.N.O=C(O)C1(C(=O)O)CCC1.[Pt]", "Potency": "inactive and inconclusive: 25.1 µM [fluorescent, partial curve]"}, {"smiles": "Cc1ccc(NC(=O)CSCC(N)=O)cc1C", "Potency": "inconclusive: 15.8 µM [inhibitor, partial curve]"}, {"smiles": "O=C1C2C3CCCC3=C3CCCC3C2C(=O)N1c1ccc(Cl)cc1", "note": "(centres undefined)", "activity change, negative = inhibition": "inconclusive: -17.9% [inhibitor]"}, {"smiles": "CCOC(=O)N1CCN(c2cc3[nH]c(=S)[nH]c3cc2F)CC1", "activity change, negative = inhibition": "inactive: 0.0807%"}, {"smiles": "CCN1CCC[C@H]1CNC(=O)c1c(O)c(Cl)cc(Cl)c1OC", "activity change, negative = inhibition": "inactive: -4.45%"}, {"smiles": "c1ccncc1", "activity change, negative = inhibition": "inactive: 0.418%"}, {"smiles": "Cc1cc(N2CCCCC2)nc(SCc2ccc(C#N)cc2)n1", "activity change, negative = inhibition": "inactive: -2.07%"}, {"smiles": "CCOC(=O)C1CCCN(Cc2ccc(O)c(OC)c2)C1", "note": "(centres undefined)", "activity change, negative = inhibition": "inactive: -1.98%"}, {"smiles": "O=C(Nc1nc(-c2ccccn2)cs1)c1ccc(S(=O)(=O)N2CCCCC2)cc1", "activity change, negative = inhibition": "inactive: -6.56%"}, {"smiles": "N#CC(C(=O)NCc1ccco1)c1nc2ccccc2nc1N1CCOCC1", "note": "(centres undefined)", "Potency": "inconclusive: 20 µM [inhibitor, partial curve]"}, {"smiles": "Cc1cc(C(=O)Nc2sc(C)c(-c3ccc(F)cc3)c2C(N)=O)no1", "Potency": "inconclusive: 31.6 µM [inhibitor, partial curve]"}, {"smiles": "Oc1c(C(c2ccccc2)N2CCN(Cc3ccccc3)CC2)sc2ncnn12", "note": "(centres undefined)", "activity change, negative = inhibition": "inactive: -0.78%"}, {"smiles": "C=CCN1CC2CC3(COc4cc(C)cc(C)c4)C=CC2(O3)C1=O", "note": "(centres undefined)", "Potency": "inconclusive: 25.1 µM [inhibitor, partial curve]"}, {"smiles": "CSc1ccc(C2C(C#N)=C(N)Oc3cc4c(cc32)OCO4)cc1", "note": "(centres undefined)", "activity change, negative = inhibition": "inconclusive: -17.6% [inhibitor]"}, {"smiles": "CCOC(=O)COc1ccc2c(c1)C(=O)CC(C)(C)O2", "Potency": "inconclusive: 31.6 µM [inhibitor, partial curve]"}, {"smiles": "CCCSC1=N/C(=C\\C=C\\c2ccco2)C(=O)S1", "Potency": "inconclusive: 25.1 µM [inhibitor, single point]"}, {"smiles": "CCCN1C[C@@H](CSC)C[C@H]2c3cccc4[nH]cc(c34)C[C@@H]21", "activity change, negative = inhibition": "inactive: 0.33%"}, {"smiles": "OCC(CO)(CO)N=Cc1cc(Br)ccc1O", "Potency": "inconclusive: 25.1 µM [inhibitor, partial curve]"}, {"smiles": "CN(C)c1ccc(-c2ccc3ncnc(NCc4ccccc4)c3c2)cc1", "Potency": "inconclusive: 31.6 µM [inhibitor, single point]"}]}]}
